# In all, about 33,000 sequences were measured (“E-score (-0.5 to 0.5)”: median about -0.017, highest 2% from about 0.3 on). The list shows a part of the results.
# Target: T1, Sut1 (UniProt P53032)
# T1 sequence: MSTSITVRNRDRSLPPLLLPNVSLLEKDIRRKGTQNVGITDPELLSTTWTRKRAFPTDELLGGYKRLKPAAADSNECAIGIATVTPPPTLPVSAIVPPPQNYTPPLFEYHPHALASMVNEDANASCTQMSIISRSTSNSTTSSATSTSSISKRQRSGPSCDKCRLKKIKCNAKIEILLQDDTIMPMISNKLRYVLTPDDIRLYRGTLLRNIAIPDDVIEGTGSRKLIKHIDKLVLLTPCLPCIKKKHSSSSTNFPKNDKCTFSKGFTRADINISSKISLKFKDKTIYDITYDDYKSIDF
# Experiment: PBM E-score (8-mer binding enrichment) (E-score (-0.5 to 0.5)); higher = stronger / more preferred TF binding; most listed sequences are background and not binding sites
# Details: protein concentration: 200 nM; construct: GST-full length
# In short: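 E-scores (a modified Wilcoxon-Mann-Whitney statistic) were assigned by the Universal PBM Analysis Suite to every ungapped eight-base word pooled with its reverse complement. The input came from universal all-10-mer Agilent arrays made double-stranded by primer extension and probed with GST-tagged yeast transcription factors at about 100-200 nM. Fluorescent anti-GST detected bound protein, and masliner normalised the scans.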
row,Sequence,PBM E-score
1,AGTCTACC,-0.165
2,ACTGTTAG,-0.231
3,GCTCCGCC,0.0486
4,AGAAACTC,0.225
5,CCGGTCAC,-0.102
6,CTCAACTC,0.0571
7,ACCATCGG,0.0205
8,AGCGCACT,-0.203
9,GCTACTCA,0.0293
10,ATACAGGA,0.154
11,AACGATCT,-0.0568
12,ACCGCGTA,0.0123
13,CCAACGGA,0.207
14,CCGTAAAG,0.1
15,AAATCATG,0.129
16,CTGGTGGA,-0.2
17,GGCGCCCA,-0.104
18,ATTCAGCA,0.0348
19,CTTTTCAA,0.198
20,CAAAGAGC,0.0931
21,GGAGCCCC,-0.0999
22,GAAAATAC,0.184
23,CGTAGACA,0.0239
24,TGCCCCAA,-0.0828
25,GAGGTTAC,-0.0115

row,Sequence,PBM E-score
1,CCTTGTGC,-0.286
2,CGCCGAGC,0.0158
3,CAGTATAC,0.0389
4,AACGAATG,0.11
5,CGGGGTTC,0.398
6,CAAATACG,0.0615
7,CTAAATGC,0.126
8,GGGGGAAA,-0.0546
9,AAAGGGAA,0.0494
10,ATTAGAAG,0.211
11,CAACAGAA,-0.0506
12,ATCCGAGG,-0.053
13,AGGTTGCA,0.137
14,CAGGCCAG,-0.221
15,CCAGGAGG,-0.301
16,AAATCGAA,0.0216
17,CAGACAAG,0.00811
18,GATGGTTA,0.0553
19,CCAAAATA,0.152
20,ATGCGAAG,-0.088
21,AAAGGTAC,0.00948
22,AATCGATG,0.107
23,ATACTGAG,0.0977
24,CATGTCAC,-0.0522
25,TCCCCCGA,-0.141

row,Sequence,PBM E-score
1,AGACTGCA,-0.207
2,AGCAGGTC,-0.176
3,ATCACTCG,0.00678
4,CCAGGATC,-0.201
5,CCTAAAGG,-0.132
6,GTTTTAGA,0.0546
7,AGCTGCAG,0.0539
8,CATCTGTC,-0.171
9,CCCAAATC,-0.00206
10,CCAGTCCA,-0.183
11,AACAGGAA,0.0176
12,ATGTTAGA,0.0706
13,CTATTATA,0.207
14,GGAGCGCC,-0.169
15,CCTCCGAC,0.0212
16,CCACTACC,-0.127
17,CCCGAGCC,0.0989
18,CTAACACA,0.158
19,GCTCCTTA,0.00361
20,AACTACGA,0.0864
21,TCGCCCCA,-0.264
22,AAGCACTA,-0.00736
23,TATTGGCA,0.0614
24,CACTAGGA,-0.155
25,CTAGACAC,-0.0413

row,Sequence,PBM E-score
1,GTAGATTA,0.292
2,TGCAGGAA,-0.0304
3,AAAAACCG,0.122
4,ATAGGCTA,0.0372
5,CCTAATTC,0.0749
6,CTCGACCC,-0.141
7,TATCTGAA,-0.0206
8,AAGACGGA,0.221
9,AATTTCGA,0.139
10,ATAGGAGC,-0.103
11,GAAGAGAA,0.0788
12,GTTAACAA,0.129
13,AACAGTTC,0.172
14,CTCTTTGC,-0.0141
15,GGACCCCA,-0.0896
16,ACCTCTAC,-0.0415
17,CGGTGCAG,-0.158
18,GAGAGGTA,-0.246
19,CAACTTTC,0.178
20,CGTAACCC,-0.0696
21,AATACTTC,0.13
22,CATTGTCC,0.195
23,ACATCGTC,-0.114
24,GCCTCCGC,-0.138
25,ACTCGACG,0.0405

row,Sequence,PBM E-score
1,CCTCGGAC,0.412
2,GCGCCAAA,0.013
3,GTCGCACA,-0.125
4,GCCGTCCC,-0.0362
5,CCGATTAA,0.267
6,CATATGGG,-0.132
7,AGTAAACG,-0.0776
8,CAAATCAC,-0.0609
9,AGATGCCT,-0.116
10,CGATGAAA,0.139
11,CAATAGGG,-0.12
12,ATAGCTGG,-0.19
13,AGGGGCGG,-0.158
14,ACCTAGCG,-0.151
15,AAACCCAC,0.0368
16,ACATTGTC,0.141
17,CGAGTCCC,0.014
18,AAGCCTGC,-0.113
19,CCGCTGTC,-0.0805
20,CACGTAAG,-0.142
21,AAATACTA,0.164
22,AAATTTGC,0.102
23,CCAGCAAA,-0.0863
24,TATACCGA,0.206
25,ATTGACAA,0.0436

row,Sequence,PBM E-score
1,GTCTGGTA,-0.0578
2,GAGGACCC,-0.0985
3,TCTACCCA,-0.112
4,GGCTCGAA,-0.0949
5,GATGAAGC,-0.0232
6,CATGGGTA,-0.235
7,ATAATCAG,0.115
8,CGTATGAC,0.0341
9,AAAAATTC,0.235
10,ACACGTTA,-0.223
11,AAAAGCAC,-0.00919
12,ACCATAGC,-0.0851
13,TAACAACA,0.218
14,ATTAGCCG,0.0336
15,CTTGTTGC,-0.143
16,CACCTCCA,-0.134
17,CACGTGCG,-0.26
18,ATGTAGAC,-0.0125
19,TAGGATGA,-0.0438
20,GTATTGTA,0.104
21,ATAGTTAG,0.173
22,CACTAATA,0.213
23,AGACACCT,-0.173
24,AGCATGCA,-0.136
25,AGCTCTAA,0.0936

row,Sequence,PBM E-score
1,CTCAAGAG,-0.154
2,ATATTGTA,0.145
3,CCTTACCG,0.0245
4,CTGCGACA,0.0687
5,GGGCTACC,-0.227
6,CACACGGA,0.12
7,CAATGATC,0.0137
8,ATTGGACA,0.0813
9,ATAGTACG,0.179
10,CATCGATG,-0.21
11,AAGCCAAG,-0.183
12,CCACGGGC,-0.239
13,ATACCAGG,-0.179
14,AGATTAAC,0.158
15,AGTTTGAA,0.207
16,CTCTCAGC,-0.198
17,CCCGCTCG,-0.259
18,GTTTAAGA,0.128
19,ACAATTGA,0.06
20,ACGCAGAA,-0.00882
21,ACCGCAGC,-0.315
22,GAAGTGAC,-0.148
23,CCACATGA,-0.0653
24,CCCAATTA,0.0988
25,CGAAGGGC,-0.083

row,Sequence,PBM E-score
1,CTCACGTC,-0.161
2,GAAACGAA,0.173
3,AAAATATG,0.206
4,CGGGACTA,-0.146
5,ATGCTTCG,0.0442
6,CGTGTGTC,-0.13
7,GCCAATTA,0.00797
8,ACGTTTAG,-0.183
9,ACAGGATC,-0.105
10,CGGGCTCC,-0.0544
11,AAATGATC,0.105
12,CTACAGGA,0.0208
13,CAGGACCG,-0.131
14,AAAGATAA,0.207
15,CGGGCGGA,0.0269
16,GGCCTTAC,-0.0765
17,CTTATCAC,-0.137
18,GGATGCGA,-0.222
19,ATTCCATC,0.27
20,ACCCTATA,-0.0833
21,AGGAAACT,-0.0246
22,ATGATAGC,0.0815
23,AAGAATTA,0.187
24,AAAGCCCA,0.118
25,GAAAGTCA,0.049

row,Sequence,PBM E-score
1,ACCCGGAA,0.197
2,CAAAATTC,0.308
3,CTGAAGGC,-0.271
4,GTCTAGAA,0.0897
5,TATTTAGA,0.153
6,CATCCCCG,0.0938
7,ATCTGGTC,-0.139
8,GACAAACA,-0.00941
9,TGATGCAA,-0.0323
10,AATGCACT,0.141
11,CCATTGTA,0.114
12,TACAAGCA,0.137
13,TGCCGACA,0.0327
14,CCCGAAAC,0.0905
15,ACGTATAT,0.1
16,AACGCGAC,-0.26
17,ATTACCTC,0.0885
18,AATTAACG,0.182
19,GCGTTAGA,-0.104
